These results are taken from the supplement of paper PMC4604168 (melanoma cell lines).

Some of the results follow. Repeats are few or missing, and single values can be far off.
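Further: cell number obtained by counting DAPI-stained nuclei in high-throughput microscope images with image analysis software, screen run in 1,536-well plates.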

For the first test, the system named is WM3619. As to the kind of experiment: cell count relative to DMSO control; melanoma cells; higher = more viable cells. The note with it: library dose: low library concentration; 72 h.
Take `O=C(O)[C@@H]1[O][Sb](=[O])([O][Sb]2(=[O])[O][C@H]([C@H](O)CO)[C@H](O)[C@H](C(=O)O)[O]2)[O][C@H]([C@H](O)CO)[C@@H]1O` (some centres undefined) [stibogluconate] + CC(C)(C)c1cnc(CSc2cnc(NC(=O)C3CCNCC3)s2)o1 [SNS-032] (first compound 2 µM, partner dose 0.01 µM): the cell count is 105%.
`O=C(O)c1ccc2c(c1)nc(Nc1cccc(Cl)c1)c1ccncc12` + CO[C@@H]1[C@H](N(C)C(=O)c2ccccc2)C[C@H]2O[C@]1(C)n1c3ccccc3c3c4c(c5c6ccccc6n2c5c31)C(=O)NC4 [Midostaurin] (first compound 0.4 µM, partner dose 0.08 µM) showed a cell count of 81%.
Still for that read-out and setting: next, `O=C(O)[C@@H]1[O][Sb](=[O])([O][Sb]2(=[O])[O][C@H]([C@H](O)CO)[C@H](O)[C@H](C(=O)O)[O]2)[O][C@H]([C@H](O)CO)[C@@H]1O` (some centres undefined) [stibogluconate] + COCC[n+]1c2c(n(Cc3cnccn3)c1C)C(=O)c1ccccc1C2=O [YM155] (first compound 2 µM, partner dose 0.0004 µM): 102%; `O=C(Nc1cc(C(F)(F)F)cc(C(F)(F)F)c1)c1cc(Cl)ccc1O` + NC1(c2ccc(-c3nc4ccn5c(=O)[nH]nc5c4cc3-c3ccccc3)cc2)CCC1 [MK2206] (first compound 0.016 µM, partner dose 0.4 µM): 104%.
On the same count and under the same terms, next, `O=C(Nc1cc(C(F)(F)F)cc(C(F)(F)F)c1)c1cc(Cl)ccc1O` + O=c1[nH]nc(Sc2ncc([N+](=O)[O-])s2)n1-c1ccc2c(c1)OCCO2 [BI78D3] (first compound 0.016 µM, partner dose 0.2 µM): 93.3%.
Still for that read-out and setting: next, `O=C(O)[C@@H]1[O][Sb](=[O])([O][Sb]2(=[O])[O][C@H]([C@H](O)CO)[C@H](O)[C@H](C(=O)O)[O]2)[O][C@H]([C@H](O)CO)[C@@H]1O` (some centres undefined) [stibogluconate] + Nc1cccc2c1CN(C1CCC(=O)NC1=O)C2=O [lenalidomide] (first compound 2 µM, partner dose 1 µM): 93.8%.
In turn, `Cn1nnc2c(C(N)=O)ncn2c1=O` [temozolomide] + CN(NC(=O)CC(=O)NN(C)C(=S)c1ccccc1)C(=S)c1ccccc1 [STA4783] (first compound 2 µM, partner dose 0.006 µM) had a cell count of 9.61%.

In the next test the test system is WM451Lu. The description is as above. The note with it: library dose: low library concentration; 72 h.
As to `O=C(O)[C@@H]1[O][Sb](=[O])([O][Sb]2(=[O])[O][C@H]([C@H](O)CO)[C@H](O)[C@H](C(=O)O)[O]2)[O][C@H]([C@H](O)CO)[C@@H]1O` (some centres undefined) [stibogluconate] + CN(C)S(=O)(=O)c1ccc2c(c1)/C(=C/c1cc3c([nH]1)CCCC3)C(=O)N2 [SU6656] (first compound 2 µM, partner dose 0.4 µM), the cell count worked out at 121%.
`O=C(O)c1ccc2c(c1)nc(Nc1cccc(Cl)c1)c1ccncc12` + C[C@]1(c2nc3c(C(N)=O)cccc3[nH]2)CCCN1 [Veliparib] (first compound 0.4 µM, partner dose 1.4 µM) displayed a cell count of 101%.
The same measure, in the same setting: with `O=C(Nc1cc(C(F)(F)F)cc(C(F)(F)F)c1)c1cc(Cl)ccc1O` + NC(=O)c1ccc(N(C(N)=O)c2c(F)cccc2F)nc1-c1ccc(F)cc1F [VX702] (first compound 0.016 µM, partner dose 0.4 µM) the figure was 74.4%; with `O=C(Nc1cc(C(F)(F)F)cc(C(F)(F)F)c1)c1cc(Cl)ccc1O` + Cn1cnc2c(F)c(Nc3ccc(Br)cc3Cl)c(C(=O)NOCCO)cc21 [selumetinib] (first compound 0.016 µM, partner dose 0.015 µM), 97.6%; with `O=C(O)c1ccc2c(c1)nc(Nc1cccc(Cl)c1)c1ccncc12` + O=C1NC(=O)/C(=C/c2ccc(-c3ccc(F)cc3O)o2)S1 [AS252424] (first compound 0.4 µM, partner dose 1 µM), 103%.
On the same count and under the same terms, next, `O=C(Nc1cc(C(F)(F)F)cc(C(F)(F)F)c1)c1cc(Cl)ccc1O` + O=C(O)[C@@H]1[O][Sb](=[O])([O][Sb]2(=[O])[O][C@H]([C@H](O)CO)[C@H](O)[C@H](C(=O)O)[O]2)[O][C@H]([C@H](O)CO)[C@@H]1O [stibogluconate] (first compound 0.016 µM, partner dose 2 µM): 173%; `O=C(O)c1ccc2c(c1)nc(Nc1cccc(Cl)c1)c1ccncc12` + OCc1c[nH]c2ccccc12 [Indole-3-carbinol] (first compound 0.4 µM, partner dose 0.8 µM): 130%.
For the compound `O=C(Nc1cc(C(F)(F)F)cc(C(F)(F)F)c1)c1cc(Cl)ccc1O` + COc1cc2ncnc(Nc3ccc(Oc4ccccc4)cc3)c2cc1OC [SrcI1] (first compound 0.016 µM, partner dose 2 µM), the cell count is 96.8%.
In turn, `O=C(O)[C@@H]1[O][Sb](=[O])([O][Sb]2(=[O])[O][C@H]([C@H](O)CO)[C@H](O)[C@H](C(=O)O)[O]2)[O][C@H]([C@H](O)CO)[C@@H]1O` (some centres undefined) [stibogluconate] + COc1cc(Nc2ncc(F)c(Nc3ccc4c(n3)NC(=O)C(C)(C)O4)n2)cc(OC)c1OC [Tamatinib] (first compound 2 µM, partner dose 0.4 µM) returned a cell count of 105%.
The same measure, in the same setting: next, `O=C(Nc1cc(C(F)(F)F)cc(C(F)(F)F)c1)c1cc(Cl)ccc1O` + CC1(C)CCC(c2ccc(Cl)cc2)=C(CN2CCN(c3ccc(C(=O)NS(=O)(=O)c4ccc(N[C@H](CCN5CCOCC5)CSc5ccccc5)c(S(=O)(=O)C(F)(F)F)c4)cc3)CC2)C1 [ABT263] (first compound 0.016 µM, partner dose 0.4 µM): 83.8%; `O=C(Nc1cc(C(F)(F)F)cc(C(F)(F)F)c1)c1cc(Cl)ccc1O` + CC(C)CCN1c2nc(Nc3cc(F)c(O)c(F)c3)ncc2N(C)C(=O)C1C [BID1870] (first compound 0.016 µM, partner dose 0.2 µM): 105%.
Consider `O=C(Nc1cc(C(F)(F)F)cc(C(F)(F)F)c1)c1cc(Cl)ccc1O` + O=C(Nc1cccc(Cl)c1)Nc1ncc(CCNc2ncnc3ccsc23)s1 [SNS314] (first compound 0.016 µM, partner dose 0.0008 µM), for which the cell count was 89.4%.
`O=C(O)[C@@H]1[O][Sb](=[O])([O][Sb]2(=[O])[O][C@H]([C@H](O)CO)[C@H](O)[C@H](C(=O)O)[O]2)[O][C@H]([C@H](O)CO)[C@@H]1O` (some centres undefined) [stibogluconate] + CCc1ccc(CCOc2ccc(CC3SC(=O)NC3=O)cc2)nc1 [pioglitazone] (first compound 2 µM, partner dose 2 µM): the cell count was found to be 112%.
Take `O=C(O)[C@@H]1[O][Sb](=[O])([O][Sb]2(=[O])[O][C@H]([C@H](O)CO)[C@H](O)[C@H](C(=O)O)[O]2)[O][C@H]([C@H](O)CO)[C@@H]1O` (some centres undefined) [stibogluconate] + O=C(O)C(=O)Nc1sc2c(c1C(=O)O)CCNC2 [TCS401] (first compound 2 µM, partner dose 1.66667 µM): the cell count turned out to be 114%.
On the same count and under the same terms, next, `O=C(Nc1cc(C(F)(F)F)cc(C(F)(F)F)c1)c1cc(Cl)ccc1O` + CS(=O)(=O)c1ccc(C(=O)Nc2ccc(Cl)c(-c3ccccn3)c2)c(Cl)c1 [vismodegib] (first compound 0.016 µM, partner dose 1 µM): 112%.
On the same count and under the same terms, with `O=C(Nc1cc(C(F)(F)F)cc(C(F)(F)F)c1)c1cc(Cl)ccc1O` + COc1ccc(Cl)c(Nc2nc3ccccc3nc2NS(=O)(=O)c2cccc(NC(=O)C(C)(C)N)c2)c1 [XL147] (first compound 0.016 µM, partner dose 0.8 µM) the figure was 102%; with `O=C(O)c1ccc2c(c1)nc(Nc1cccc(Cl)c1)c1ccncc12` + Cn1nnc2c(C(N)=O)ncn2c1=O [temozolomide] (first compound 0.4 µM, partner dose 2 µM), 54.8%.
Still for that read-out and setting: with `O=C(O)c1ccc2c(c1)nc(Nc1cccc(Cl)c1)c1ccncc12` + CC1(C)NC(=O)N(c2ccc([N+](=O)[O-])c(C(F)(F)F)c2)C1=O [nilutamide] (first compound 0.4 µM, partner dose 1 µM) the figure was 124%; with `O=C(O)c1ccc2c(c1)nc(Nc1cccc(Cl)c1)c1ccncc12` + Oc1nc(-c2ccc(C(F)(F)F)cc2)nc2c1CSCC2 [XAV939] (first compound 0.4 µM, partner dose 2 µM), 107%.
In turn, `O=C(O)[C@@H]1[O][Sb](=[O])([O][Sb]2(=[O])[O][C@H]([C@H](O)CO)[C@H](O)[C@H](C(=O)O)[O]2)[O][C@H]([C@H](O)CO)[C@@H]1O` (some centres undefined) [stibogluconate] + C#Cc1cccc(Nc2ncnc3cc(OCCOC)c(OCCOC)cc23)c1 [erlotinib] (first compound 2 µM, partner dose 0.8 µM) showed a cell count of 94.2%.
`O=C(O)[C@@H]1[O][Sb](=[O])([O][Sb]2(=[O])[O][C@H]([C@H](O)CO)[C@H](O)[C@H](C(=O)O)[O]2)[O][C@H]([C@H](O)CO)[C@@H]1O` (some centres undefined) [stibogluconate] + C[C@@H]1CCN(C(=O)CC#N)C[C@@H]1N(C)c1ncnc2[nH]ccc12 [CP690550] (first compound 2 µM, partner dose 1 µM) showed a cell count of 108%.
For the compound `O=C(O)[C@@H]1[O][Sb](=[O])([O][Sb]2(=[O])[O][C@H]([C@H](O)CO)[C@H](O)[C@H](C(=O)O)[O]2)[O][C@H]([C@H](O)CO)[C@@H]1O` (some centres undefined) [stibogluconate] + OCc1c[nH]c2ccccc12 [Indole-3-carbinol] (first compound 2 µM, partner dose 0.8 µM), the cell count is 89.7%.
